# About 230 (0.21%) of roughly 110,000 compounds showed an effect of 50% or more. The list shows a part of the results.
# Biological target: DPAP1 (Plasmodium falciparum, UniProt Q8IIJ9)
# Assay: primary screen, percent inhibition; read by cleavage of a fluorogenic dipeptide substrate; higher = more effect of the substance
# Parameters: species or system P. falciparum D10 trophozoite lysates; single well
# 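Also: 30 min substrate incubation versus DMSO and 10 µM JCP410 controls.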
# Sequence of DPAP1 (Q8IIJ9 whole entry, looked up): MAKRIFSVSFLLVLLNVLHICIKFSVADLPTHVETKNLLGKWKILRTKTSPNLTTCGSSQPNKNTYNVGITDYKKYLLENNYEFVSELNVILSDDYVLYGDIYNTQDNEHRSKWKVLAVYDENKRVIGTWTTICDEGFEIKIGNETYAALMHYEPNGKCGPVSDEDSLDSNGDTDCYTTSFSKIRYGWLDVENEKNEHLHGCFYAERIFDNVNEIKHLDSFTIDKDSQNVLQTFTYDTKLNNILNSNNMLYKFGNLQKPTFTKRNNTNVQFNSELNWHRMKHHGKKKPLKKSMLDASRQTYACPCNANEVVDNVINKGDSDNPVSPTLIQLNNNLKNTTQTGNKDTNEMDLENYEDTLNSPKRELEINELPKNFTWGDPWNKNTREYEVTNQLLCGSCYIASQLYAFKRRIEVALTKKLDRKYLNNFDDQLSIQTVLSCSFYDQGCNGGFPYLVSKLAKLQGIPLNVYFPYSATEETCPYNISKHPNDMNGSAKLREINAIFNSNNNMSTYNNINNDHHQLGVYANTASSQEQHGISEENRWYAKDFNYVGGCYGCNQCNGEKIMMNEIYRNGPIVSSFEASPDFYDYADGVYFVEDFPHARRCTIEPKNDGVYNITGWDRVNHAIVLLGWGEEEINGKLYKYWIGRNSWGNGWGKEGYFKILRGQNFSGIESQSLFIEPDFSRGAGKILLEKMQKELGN
row,Structure (SMILES),% Inhibition @ 10 uM [%]
1,Cc1ccc(S(=O)(=O)N(CC(=O)NC2CC3CCC2C3)c2ccccc2C)cc1 (centres unmarked),1.57
2,COc1ccc(C2CC(=O)c3cnc(NC(=O)c4ccccc4)nc3C2)cc1OC (centres unmarked),2.38
3,COc1ccc(-c2nc3cc(NC(=O)c4ccco4)ccc3o2)cc1,6.4
4,Cc1c(Br)c(C(=O)NCc2cc3ccccc3[nH]2)nn1C,0.389
5,COc1ccc(OC)c(N2Cc3cc(C)c(C)cc3C2)c1,1.64
6,COc1ccc(/C=C(/NC(=O)c2ccc(Br)cc2)C(=O)Nc2cccc(C(=O)O)c2)cc1,-1.06
7,Cc1cc2nc(O)c(O)nc2cc1S(=O)(=O)N(Cc1ccccc1)C(C)C,-2.13
8,COc1ccccc1OCc1nc(C#N)c(N2CCN(C)CC2)o1,-2.75
9,CCOc1ccc(OCc2cccc(C(=O)N3CCCCC3C)c2)cc1 (centres unmarked),-1.57
10,CC(C)CNc1c(Cl)cnn(C)c1=O,-0.856
11,COC(=O)c1c(NC(=O)C2CC2c2ccccc2)sc2c1CCCC2 (centres unmarked),-1.1
12,CNC(=O)n1c(=O)sc2ccccc21,4.22
13,CCOC(=O)c1cc2c3c(c(N4CCOCC4)nc2s1)COC(C)(C)C3,-1.72
14,CCc1ccc(C(C)NC(=O)Cc2ccccc2)cc1 (centres unmarked),-11
15,COc1cc(C2=NOC(C(=O)N(C)Cc3ccccc3)C2)cc(OC)c1OC (centres unmarked),-0.431
16,COC(=O)c1ccc(CSc2nnc(-c3ccccc3)o2)o1,-2.75
17,O=C(Cc1ccccc1)NC1(C(F)(F)F)C(=O)Nc2c1c(=O)[nH]c(=O)n2-c1ccc(F)cc1 (centres unmarked),-6.43
18,O=C1c2ccc(F)cc2C(=O)N1CN1CCOCC1,-5.4
19,Cc1cc(NS(=O)(=O)c2ccc(NC(=O)COc3cc(C)c(Cl)c(C)c3)cc2)no1,-4.63
20,CCNC(=O)c1ccc2c(c1)sc1nc(-c3ccc(C)cc3)cn12,4.33
21,CCCCNC(=O)Cn1sc2nc(C)cc(C)c2c1=O,1.89
22,Brc1cc2[nH]cnc2c2ccccc12,-3.5
23,O=C(/C=C/c1ccccc1)Nc1cc2ccccc2oc1=O,4.35
24,Cc1cccc(C)c1-n1nnnc1C(c1ccc(O)cc1)N(C)C (centres unmarked),-4.02
25,CCC[C@H](NC(=O)C1(NC(=O)c2ccc(OC)cc2)CCCCC1)C(=O)c1nc2ccccc2o1,-3.04
26,O=C(CSc1nc(-c2cccs2)cc(C(F)(F)F)n1)NCc1ccncc1,-2.09

row,Structure (SMILES),% Inhibition @ 10 uM [%]
1,CCO/C(O)=C1\C(C)=NC2=C(C(=O)CC(C)(C)C2)C1c1c[nH]c2ccccc12 (centres unmarked),1.54
2,Cc1ccnc(NC(=O)C(C)c2cccc(C(=O)c3ccccc3)c2)n1 (centres unmarked),-1.52
3,CC1C(c2ccc(Cl)cc2)=[N+]([O-])C(C)(C)N1O (centres unmarked),1.84
4,Cn1c(=O)[nH]c(=O)c2c1nc(N1CCN(CCO)CC1)n2Cc1ccccc1,-2.84
5,CC(C)C[C@H](NC(=O)c1cccc(-c2csc(N=C(N)N)n2)c1)C(=O)N[C@@H](CCCN=C(N)N)C(=O)O,-9.15
6,N#CC1=C(SCC(=O)Nc2ccc(F)c(F)c2F)NC(=O)CC1c1ccccc1F (centres unmarked),2.44
7,O=c1c(-c2ccccc2)c(O)nc2n1CCCS2,3.81
8,CC(OCCCc1ccccc1)n1ccnc1 (centres unmarked),-0.312
9,CCCSc1nc(O)cc(=O)n1C1CCCCC1,0.658
10,CC(C)C[C@H](NC(=O)c1ccc(CN)cc1)C(=O)N[C@@H](CCc1ccccc1)C(=O)CO,-5.64
11,CNC(=O)/C(=C\c1ccco1)NC(=O)c1ccc(Br)cc1,2.38
12,Cc1cc(/C=C2/NC(=O)N(Cc3ccccc3F)C2=O)c(C)n1-c1ccncc1,-16.8
13,c1ccc2sc(-n3cccc3)nc2c1,-1.6
14,CC1CN(C2=NC(=O)/C(=C/c3ccccc3)S2)CC(C)O1 (centres unmarked),-3.41
15,COc1ccc(-c2ccc3c(N)c(C(=O)NCc4ccccc4)sc3n2)cc1,0.375
16,Cc1nc2c(c(C)c1CCC(=O)NCCCN1CCOCC1)c(=O)n(C)c(=O)n2C,-6.91
17,Cc1cc(NC(=O)CN2C(=O)c3ccccc3C2=O)[nH]n1,0.238
18,C=CCNC1CC(=O)N(c2ccc(OC)cc2)C1=O (centres unmarked),-9.26
19,CN(Cc1ccccc1)C1CCN(CCc2ccccc2)CC1,1.29
20,COc1cc(CN2CCN(C(=O)c3cccc(F)c3)CC2)cc(OC)c1OC,7.1
21,CCc1ccc(/C=C2/C(=N)N3OC(C)=CC3=NC2=O)cc1,-3.23
22,CCc1ccccc1NC(=O)CCC(=O)O,-2.55
23,CCCOc1ccc(NC(=N)Nc2nc(C)cc(C)n2)cc1,1.65
24,CC(C)COc1ccc(C(=O)OCCN2CCCCC2)cc1,-4.77
25,CC1CN(Cc2coc3ccc(Cl)cc3c2=O)CC(C)O1 (centres unmarked),0.472
26,CC(C(=O)NC1CCCCCC1)n1c(=O)c2cccn2c2cccnc21 (centres unmarked),-5.07

row,Structure (SMILES),% Inhibition @ 10 uM [%]
1,c1ccc(CN2CCC(N3CCCCCC3)CC2)cc1,1.57
2,Cc1sc2nc(SCC(=O)NCCCn3ccnc3)nc(O)c2c1C,1.39
3,CC[C@H](NC(=O)[C@H](Cc1c(F)cccc1F)NC(=O)c1ccc(-c2ccccc2Cl)cc1)C(=O)C(=O)NC,-1.82
4,Cc1cccc2c1cnn2C(=O)CCC(=O)NC1CCN(Cc2ccccc2)CC1,3.29
5,O=C(COc1ccccc1)NCCN1CCCC1,-6.94
6,CCCCC(=O)Nc1c(C(=O)OCC)sc2nc(C)c(Cl)c(C)c12,1.11
7,Cc1cccc(OCC(=O)Nc2ccc(C)c(O)c2)c1,-6.39
8,CC(=O)N(C)c1ccc(NC(=O)c2ccc(F)cc2)cc1,-3.09
9,CCOc1ccc(-c2oc3ccc(C)cc3c(=O)c2O)cc1OC,1.74
10,O=C1C2CCCN2C(=O)N1CCN1CCN(CCO)CC1 (centres unmarked),-3.65
11,O=C1NC(Nc2cccc(C(=O)O)c2)=N/C1=C\c1ccccc1,5.41
12,CCCCNC(=O)C1(c2ccc(OC)cc2)CCOCC1,-3.04
13,CCO/C(O)=C(\C#N)c1ccnc(O)n1,-2.21
14,CCc1ccc(-n2nc(C)c3c(C(=O)OC)cc(C)nc32)cc1,-4.25
15,CCC(=O)Nc1ccc(-c2cnc3ccccc3n2)cc1,-6.48
16,CC(C)(C)NCC(O)CO/N=C(\c1ccccc1)c1ccccn1 (centres unmarked),0.266
17,Cc1ccccc1C(=O)c1cccn1CC(=O)NCc1cccnc1,4.33
18,C#CCN1C(=O)SC(Cc2cc(OCC)c(OCC)cc2Br)C1=O (centres unmarked),1.96
19,Cc1cc(C)nc(NS(=O)(=O)c2ccc(NC(=O)c3ccoc3C)cc2)n1,-0.545
20,Nc1c(C(=O)NCCc2ccccc2)nnn1-c1ccc(OC(F)(F)F)cc1,6.05
21,CCOC(=O)c1sc2nc3n(c(=O)c2c1C)N=C(c1cc2cccc(OC)c2oc1=O)CS3,5.38
22,CS(=O)(=O)N1CCN(c2nc(-c3ccccc3)cs2)CC1,-3.04
23,Cc1cccc(C(=O)Nc2sc(C)c(C)c2C(N)=O)c1,-0.949
24,Cc1cc(Cl)ccc1OCC(O)CN1CCN(Cc2ccc3c(c2)OCO3)CC1 (centres unmarked),-9.77
25,COc1ccc(CCNC(=O)C(C)n2nc(C)c3sc4ccccc4c3c2=O)c(OC)c1OC (centres unmarked),-2.78
26,CCOP(=O)(O)COc1ccccc1O,2.4

row,Structure (SMILES),% Inhibition @ 10 uM [%]
1,COc1ccc(N(CC(=O)Nc2ccccc2)S(C)(=O)=O)c(OC)c1,3.53
2,Cc1cccc(CN2CCCC2CO)c1 (centres unmarked),1.62
3,Cc1c(C(=O)NC2CCCCCC2)sc2ncnc(N3CCCCC3C)c12 (centres unmarked),-2.87
4,O=C(CN1C(=O)S/C(=C/c2ccc(N3CCOCC3)cc2)C1=O)N1CCOCC1,-2.94
5,Cc1cc(C)c(S(=O)(=O)N(C)CC(=O)Nc2ccc(S(N)(=O)=O)cc2)c(C)c1,-4.43
6,CC(C)c1ccc(C2C(C(=O)c3cccs3)=C(O)C(=O)N2CCCN2CCOCC2)cc1 (centres unmarked),1.17
7,Cc1ccc2oc(=O)c3cc(C(=O)NCCc4ccc(S(N)(=O)=O)cc4)sc3c2c1,-5.58
8,Cc1ccc(CN2CCC(CNC(=O)c3nn(C)c4c3CS(=O)(=O)c3ccccc3-4)CC2)cc1,4.28
9,Nc1nnc(SCc2nc(O)c3ccccc3n2)s1,-0.403
10,COc1ccc(CN2CCN(Cc3cccc(OC)c3OC)CC2)cc1Br,10
11,Brc1ccc(CNCCSc2nnnn2-c2ccccc2)cc1,-1.31
12,COc1cc(CNc2nc[nH]n2)ccc1OCC(=O)NC(C)(C)C,0.686
13,C=CCOc1c(Br)cc(CNc2ccc(C(=O)O)cc2)cc1OC,-1.61
14,COc1cc(C(=O)Nc2c3c(nn2-c2cccc(C)c2C)CS(=O)(=O)C3)cc(OC)c1OC,-0.812
15,O=c1nc2s/c(=C\c3ccccc3Br)c(=O)n2nc1-c1ccccc1,-7.39
16,O=C(Nc1ccc(-c2ccc(Cl)cc2)cc1)c1ccc(Cl)s1,-0.233
17,CC1CCCN(C2=C(Cl)C(=O)N(c3cccc(Cl)c3)C2=O)C1 (centres unmarked),-4.28
18,Cc1nnc(-c2ccccc2)o1,2.14
19,Clc1ccc2nc(N3CCN(c4ccccn4)CC3)c3nncn3c2c1,-2.19
20,CCOC(=O)N1CCC(NS(=O)(=O)c2c(C)nc3scc(C)n3c2=O)CC1,-8.17
21,CC(C)c1ccc(NC(=O)c2cc([N+](=O)[O-])ccc2Cl)cc1,-7.57
22,CC(C)c1ccc(NC(=O)c2ccc(Br)o2)cc1,2.65
23,COC(=O)c1cc(C(C)C)[nH]n1,1.72
